The source of these data is the supplement of paper PMC11417369.

This is one part of the list.

This test deals with PF3D7_0420300 AP2 domain 1 (GST-tagged). Nature of the test: gcPBM binding intensity (ln(normalized median fluorescence intensity)); higher = stronger DNA binding. In outline: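 Plasmodium falciparum DNA-binding domains carrying a GST tag were expressed in E. coli and applied for 1 h, at about 25 μg on average, to an Agilent 4 × 180k array. The array held primer-extended double-stranded 36-bp intergenic genomic probes together with negative controls, and binding took place in 1× PBS with 1% milk, 0.2 mg/ml BSA, 0.5% salmon testes DNA and 0.03% Triton X-100. An Alexa488 anti-GST antibody detected bound protein, and the array was scanned at 488 nm. Binding intensity is taken as the highest Masliner-normalised natural-log median intensity across replicate spots of either probe orientation.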
Consider “TATTATTTTAAGATTGTTTATGTAAAGAATTATGAA [CACACA_negctrl_site445]”, for which the “gcPBM binding intensity (ln)” value amounted to 8.85. As to AAATTATATACCACAGTGCAAAAGGCAGGTATACGT, the “gcPBM binding intensity (ln)” value was determined as 9.53. TGTGTATATATGCTGGTGCAACTTTAAAAAATAATC: the “gcPBM binding intensity (ln)” value was determined as 9.14. Under “GTAGAGAAAAAAATGTGGACACAAAAAATAAAAAGG [XGTACX_site4058]” stands 9.41; under “TATATTGCAAAAAGTACACACATAAATAAATACATA [CACACA_site6589]”, 9.68; under “TTTTTTTTTTTTTGCACACACATATATAAATATATA [CACACA_site3949]”, 9.61. Under GTTTATATGTTCATAGTGCATATATGTTGATTTATT stands 9.56; under “TTTTTTTTTTTTTACTGTACTTAATAAGATTGAATA [XGTACX_site2384]”, 8.89. In the case of “TATAAAAAAAAAAAAAAAAAAAAAAAAAAAAAAAAA [TGCATGCA_negctrl_site42]”, the “gcPBM binding intensity (ln)” value was 8.63. The value for “ATAAATATTATTTTACGTACATATTTATGAAGTATT [XGTACX_site8746]” was 9.12.

Take “AAATTATAAAAATGTAGTACAGACAATATATTCGTA [XGTACX_site8307]”: the “gcPBM binding intensity (ln)” value is 9.45. Take “CAGGAGAGAAAATATCGTACAAGCAAAAATAAGTGG [XGTACX_site8557]”: the “gcPBM binding intensity (ln)” value worked out at 9.53. Under “TATGGATAAATAAATACACACATAAATTTAAATATA [CACACA_site1282]” stands 9.62. Under “GCCGCACCCAGATACGCACACAAGAAAAAAATATTC [CACACA_site3456]” stands 9.26. The value for “TATAAACGCACCTACACACACAACGTAAATGCATTG [CACACA_site7120]” was 9.86; that for “TGAACATTATAGAAAAGTACTTAGTTTTTAAAAAGA [XGTACX_site6864]” was 9.06; that for “TATTCAAAACGGTATTGTACAAATTTTATAATTTAA [XGTACX_site6928]” was 8.95. For the sequence “TATTCTAGAATTTTAACACACAAGAATATAAACTTT [CACACA_site6757]”, the “gcPBM binding intensity (ln)” value came out at 9.32.

For the sequence “ATTTTTAAATACAGTACACACATGGGTTTAAATTAT [CACACA_site2884]”, the “gcPBM binding intensity (ln)” value was 9.47.

As for “TTATTATTCTTAAGGATATAACAAAAAAGAAAAATT [CACACA_negctrl_site1402]”, the “gcPBM binding intensity (ln)” value is 9.05.

In the case of “TCCTATAAACAAATTTGTACATATAAGAATATATTC [XGTACX_site3892]”, the “gcPBM binding intensity (ln)” value was 9.07.

Turning to “GGTTATATGATAGGATGTACAATTAAAAGTAAATAT [XGTACX_site5083]”, the “gcPBM binding intensity (ln)” value turned out to be 9.33. The value for “TATTTATATTTATATACACACATATATACCTATATA [CACACA_site7820]” was 9.48; that for “GATTATTTTAGAAGTACACACATTTATATATAATAA [CACACA_site5429]” was 9.35; that for “TAAAATATAATGATCACACATATAAACAAGTGGGTA [CACACA_site4651]” was 9.45. For “AAAAGGATATATGAAAGTACAAAGGTATAGTATATT [XGTACX_site7385]”, the “gcPBM binding intensity (ln)” value was determined as 9.71.

For “TACAGTAAAAATAGTTGTACTTGTTTATTTCTTCTT [XGTACX_site7674]”, the “gcPBM binding intensity (ln)” value was found to be 9.29. With “TATAACAAATAAAAATGTACATATATATAATATATA [XGTACX_site6173]”, the “gcPBM binding intensity (ln)” value was 9.38. Under “ATCTTATCATTTTAAAGTACATAATTAATTCTTTTT [XGTACX_site3999]” stands 9.22; under “ATAATACCAGAATAGATTTAAATGAATATTTTATTT [CACACA_negctrl_site476]”, 9.14. Under “ATGATATATTTAATAGTGCACTAATTAAAATTATTA [GTGCAC_site9418]” stands 8.91.

For “TATATATATAAATACACACACACAAAAAAAAAAAAA [CACACA_site4930]”, the “gcPBM binding intensity (ln)” value was 10.1. The value for AATTTAATTGTGAGAGTGCGTACTGCTCCACATATA was 9.05.

As for “ATGTGTTTGTATATATGTACATATTTATGTTATTTC [XGTACX_site6960]”, the “gcPBM binding intensity (ln)” value turned out to be 9.76. Regarding “AAAAAAAAAAAAAAAAAAAAAAAAAAATGAGATACA [GTGCAC_negctrl_site160]”, the “gcPBM binding intensity (ln)” value was found to be 9.13.

On to “TTTTGATATATGAATATTAAGTTATATAATATTTTA [TGCATGCA_negctrl_site39]”, for which the “gcPBM binding intensity (ln)” value was 8.95. The value for “TAGTTACCTTAATATTGTACTTTTCTTTCATATATG [XGTACX_site1309]” was 9.39. In the case of “CACTAAATAAGGAAAGTGCATAAAATAAAGGTTATA [GTGCAC_site9793]”, the “gcPBM binding intensity (ln)” value turned out to be 9.31.

“ATAGTTTCTGGTAGCTGTACGAGTCGTAGAGTGCAG [XGTACX_site2022]”: the “gcPBM binding intensity (ln)” value is 9.18. With “GTGTCAAATTTTATAACACACAAAAGGTTATATAAG [CACACA_site7839]”, the “gcPBM binding intensity (ln)” value turned out to be 9.28. The value for “ATTTAAAAAATATATTGTACATATTTTATTATGTTT [XGTACX_site2984]” was 9.23.

Consider “TACAGTTTTTCTTTGAATTTATCAAGTTTTTTTCCC [XGTACX_negctrl_site60]”, for which the “gcPBM binding intensity (ln)” value amounted to 9.08. The value for TAGTTAGCCCAAGGGGTGCTAATTACTATCTAAATA was 8.84; that for “TTTATAAATATTCTCACACACTTTTTATTTTAACAA [CACACA_site6454]” was 9.33; that for “AACACCAATTCATATGCACACACATCTGCATATTAT [CACACA_site8523]” was 9.86.
